Measurements reported in PubChem BioAssay AID1645882 (National Center for Advancing Translational Sciences (NCATS), 2021).
Among all 16,000 compounds or so, about 120 (0.75%) were called active. Not shown: some 4% with an inconclusive outcome. Calls come from the whole dose curve; as a rule, active = well fitted inhibition curve with a large enough effect; inconclusive = small, poorly fitted or top-dose-only effect; inactive = no such curve, though single readings can be large or run the other way. The list shows a part of the results.

target: Rap guanine nucleotide exchange factor 3 (Homo sapiens) (UniProt O95398); assay: Validation qHTS for antagonist of cAMP-regulated guanine nucleotide exchange factor 3 (EPAC1); conditions: EPAC1 Rap1B-BODIPY-GDP exchange, fluorescence; series mostly up to 150 µM; activity change, negative = inhibition: at the top concentration;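 note: plate controls were DMSO for no effect and ATA control for full effect; nearly all actives have a fitted effect of over 75% in size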
Method in brief: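 Nucleotide exchange followed as fluorescence loss when BODIPY-GDP leaves Rap1B (480 nm excitation, 540 nm emission), read at 5 min intervals over 30 min. Reaction: 100 nM EPAC1, 250 nM RAP1B-BODIPY-GDP, 50 uM GDP; ATA and DMSO define normalization.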

UniProt O95398, sequence (O95398 whole entry, looked up): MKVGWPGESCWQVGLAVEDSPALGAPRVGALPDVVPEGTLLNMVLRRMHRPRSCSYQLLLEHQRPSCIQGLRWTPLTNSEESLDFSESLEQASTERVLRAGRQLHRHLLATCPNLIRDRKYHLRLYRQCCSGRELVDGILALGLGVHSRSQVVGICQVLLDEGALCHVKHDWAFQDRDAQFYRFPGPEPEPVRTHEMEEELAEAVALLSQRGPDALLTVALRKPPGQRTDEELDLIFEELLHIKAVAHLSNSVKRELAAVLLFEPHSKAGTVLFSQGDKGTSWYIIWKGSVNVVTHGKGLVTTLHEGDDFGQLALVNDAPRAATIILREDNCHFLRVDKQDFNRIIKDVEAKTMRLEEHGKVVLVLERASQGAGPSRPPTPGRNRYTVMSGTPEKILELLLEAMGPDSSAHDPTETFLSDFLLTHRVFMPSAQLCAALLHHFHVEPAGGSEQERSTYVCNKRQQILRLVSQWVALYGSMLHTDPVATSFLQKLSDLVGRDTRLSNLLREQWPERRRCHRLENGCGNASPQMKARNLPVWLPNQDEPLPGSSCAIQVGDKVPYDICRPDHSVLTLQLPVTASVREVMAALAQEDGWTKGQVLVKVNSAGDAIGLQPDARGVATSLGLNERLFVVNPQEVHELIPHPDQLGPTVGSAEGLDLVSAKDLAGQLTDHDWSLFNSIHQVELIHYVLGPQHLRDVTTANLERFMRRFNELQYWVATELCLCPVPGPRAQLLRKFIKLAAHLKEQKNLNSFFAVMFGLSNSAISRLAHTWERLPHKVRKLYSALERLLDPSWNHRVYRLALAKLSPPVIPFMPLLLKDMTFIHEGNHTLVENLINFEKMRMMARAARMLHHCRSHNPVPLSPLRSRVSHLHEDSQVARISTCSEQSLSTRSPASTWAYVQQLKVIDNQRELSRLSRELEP

Activity change, negative = inhibition, inactive:
CCCCC(CC)COC(=O)c1ccccc1C(=O)O (configuration not stated) 31.8% [at 320 µM], Cc1oc(-c2cccc(NC(=O)c3ccccn3)c2)nc1CNC(=O)c1cc(F)c(F)cc1F 13.7%, Cc1ccc(O)c(N=Nc2ccccc2)n1, CC(C)(C)NC[C@@H](O)COc1nsnc1N1CCOCC1 -6.18%, COc1ccc2c(c1)OC/C(=C\c1ccc(OC)c(O)c1)C2=O -25%, COc1ccccc1N1CCN(CCn2c(=O)c3c(c4ccccc4n3C)n(C)c2=O)CC1, COc1ccc2c(c1)OC1(O)COc3cc(OC)c(OC)cc3C1=C2 (configuration not stated) 15.6%, Cn1cnnc1Sc1ccc(CN2CCOc3ccc(C4=Cc5ccccc5CC4)cc3C2)o1 -4.99%, COc1ccc2c(c1OC)C(Cc1ccccc1)N1CCc3cc4c(cc3C1C2)OCO4 (configuration not stated) -24.6%, CC(C)(C(=O)O)c1ccc(C(O)CCCN2CCC(C(O)(c3ccccc3)c3ccccc3)CC2)cc1 (configuration not stated), CN(C)c1ncc2nc(-c3ccccc3)c(=O)n(C3CC3)c2n1 -1.56%, Cn1cccc1C(=O)N1CCC2(CC1)CN(C(c1ccccc1)c1ccccc1)C2 -5.03%, CC(N)=NCCCC[C@H](N)C(=O)O -5.44%, C/C(=C\COc1cc(=O)[nH]c2ccccc12)CCC(O)C(C)(C)O (configuration not stated), CCN(Cc1ccncc1)Cc1ccc2c(c1)CN(C(=O)c1ccc(C)cc1)CCO2 -0.879%, O=c1c(-c2cccc(F)c2)nc2cncnc2n1C1CC1 13.8%, COc1cc2c(cc1O)CCC1C2CC[C@@]2(C)C1CC[C@@H]2O (some centres not stated) -1.06%, O=C(O)c1cc(N=Nc2ccc(O)c(C(=O)O)c2)ccc1O 5.06%, COc1c2ccoc2c(OC)c2oc(=O)ccc12 -3.76%, COc1cc(S(C)=O)ccc1-c1nc2ncccc2[nH]1 (configuration not stated) 16.8%, CCC1Nc2cc(Cl)c(S(N)(=O)=O)cc2S(=O)(=O)N1 (configuration not stated) 23.7%, O=C(NCCO)c1cn(C2CCN(Cc3c(F)cccc3Cl)CC2)nn1 17.8%, CN1CCN(c2nc(-c3cccnc3)nc3ccccc23)CC1 -10.7%, N#Cc1cccc(NC(=O)N2CCC3(CC2)CCN(C(=O)c2cccc(F)c2)CC3)c1 7.59%, COc1ccc([C@@H]2CC(=O)c3c(O)cc(O[C@@H]4O[C@H](CO[C@@H]5O[C@@H](C)[C@H](O)[C@@H](O)[C@H]5O)[C@@H](O)[C@H](O)[C@H]4O)cc3O2)cc1O 9.92% [at 75.8 µM], N#CCCn1c(=O)cnc2cnc(Nc3ccccc3)nc21 15.1%, O=c1c(-c2ccccc2)nc2cnc(Nc3ccccc3)nc2n1Cc1cccs1 50.8%, Cc1nc(C(=O)N(Cc2cc3ccc(F)cc3nc2N2CCC(O)CC2)CC2CCCO2)cs1 (configuration not stated) 16.1%, Cc1nc2cnc(N3CCNCC3)nc2n(C2CC2)c1=O 21.1%, O=C(O)COc1ccc(OCCNC[C@H](O)COc2ccccc2)cc1 23.5%, C=CC(C1=CC(=O)C=CC1=O)c1ccccc1 (configuration not stated) 1.15%, CN1CCC(=O)N([C@H](CSc2ccccc2)c2ccccc2)CC1 -12.2%, CN1CCN(c2ncc3nc(-c4ccc(Cl)cc4)c(=O)n(-c4ccccc4)c3n2)CC1 -4.89%, COc1ccc2c(=O)ccoc2c1 9.46%, Cc1nnc(SCC2=C(C(=O)O)N3C(=O)C(NC(=O)Cn4cnnn4)[C@@H]3SC2)s1 (some centres not stated) 4.8%, CN(C)CCCN1c2ccccc2Sc2ccccc21, CCCCS(=N)(=O)CC[C@H](N)C(=O)O (some centres not stated) -8.04% [at 75.8 µM], NC(Cc1ccc(Cl)cc1)C(=O)O (configuration not stated), COc1ccc(CNC(=O)[C@@H]2CC=C[C@@H]3CCN(Cc4ccc(Cl)c(Cl)c4)C(=O)[C@@H]32)cc1 -10.7%, Cc1cc(C(C)(C)C)c(O)c(C)c1CC1=NCCN1, CS(=O)(=O)Nc1cccc(-c2nc(Nc3ccncc3)c3ccccc3n2)c1 -12.7%, c1cncc(CNc2nc(-c3ccoc3)nc3ccccc23)c1 28.7%, Cn1cc(-c2nc3cnc(N4CCNCC4)nc3n(-c3ccccc3)c2=O)c2ccccc21 10.7%, CN(C)C(=O)c1ccc(-c2nc(-n3ccnc3)c3ccccc3n2)cc1 1.04%, CN1CCN(c2ncnc3ccc(-c4ccoc4)cc23)CC1 6.53%, COc1ccc(-n2c(=O)c(C)nc3cnc(Oc4ccccc4)nc32)cc1 3.4%, NS(=O)(=O)c1cc(C(=O)O)cc(N2CCCC2)c1Oc1ccccc1 15% [at 75.8 µM], Cc1oc(-c2ccccc2NC(=O)c2ccsc2)nc1CN(C)CC1CC=CCC1 (configuration not stated) 31.2%, CS(=O)(=O)N1CCC2(CC1)CN(c1ncccn1)C2 -18.5%, Cc1cc2c(c(-c3ccc4nc(C)ccc4c3)c1)OC(CNC(=O)Cc1ccn(C)c1)C2 (configuration not stated) 4.92%, Cc1cc(C)cc(NC(=O)C2CC23CCN(Cc2ccc4ncccc4c2)CC3)c1 (configuration not stated) 0.743%, CC1CC[C@@]2(OC1)OC1CC3C4CC[C@H]5CC(O)CC[C@@]5(C)C4CC[C@]3(C)C1C2C (some centres not stated) 12.8%, COCCn1c(=O)c(-c2cccc(C#N)c2)nc2cnc(OCc3ccccc3)nc21 -2.25%, CS(=O)(=O)N1CCC[C@@]2(CCN(C(=O)Nc3cccc(F)c3)C2)C1 16.2%, CC(CCc1ccccc1)NCC(O)c1ccc(O)c(C(N)=O)c1 (configuration not stated), O=C(O)c1ccccc1[O-].O=C(O)c1ccccc1[O-].[Zn+2] -12.3%, COCCn1c(=O)c(CCc2ccccc2)nc2cnc(Oc3ccccc3)nc21 4.44%, CCOC(=O)[C@H](CCc1ccccc1)N[C@@H](C)C(=O)N1Cc2ccccc2C[C@H]1C(=O)O 11.6%, OC1(c2cccnc2)CCN(Cc2ccc3c(c2)CN(Cc2ccc4nsnc4c2)CCO3)CC1 9.52%, CC1CC(OC(=O)C(O)c2ccccc2)CC(C)(C)C1 (configuration not stated) -10.4%, COCC(=O)N1CCC2(CCCN(c3ccccc3)C2)CC1 14.7%, Cc1ncc2c(c1CNS(=O)(=O)N(C)C)CCN(C(=O)c1ccc(F)cc1Cl)C2 0.14%, Cc1nc(-c2coc3c(O)c(O)ccc3c2=O)cs1 -29.1%, NC(C(=O)N[C@@H]1C(=O)N2C(C(=O)O)=C(Cl)CS[C@H]12)c1ccccc1 (some centres not stated) 7.93% [at 75.8 µM], CCOC(=O)c1c(N)sc2c1CCN(Cc1ccccc1)C2 19%, CC(=O)Oc1ccc2c(c1)CC[C@@H]1[C@@H]2CC[C@]2(C)[C@@H](O)CC[C@@H]12 55.2%, COc1ccc(C(Cl)=C(c2ccc(OC)cc2)c2ccc(OC)cc2)cc1
